In patent US20250250313A1 (REMEGEN, published 2025):
Numbering of substitutions follows the chain as printed. Names and notes keep the numbering of the source.

T1: IL-2Rβ (CD122) (UniProt P14784 27-240, limits assumed)
T1 construct: also called IL-2R beta; IL-2 receptor beta
T1 sequence (looked up): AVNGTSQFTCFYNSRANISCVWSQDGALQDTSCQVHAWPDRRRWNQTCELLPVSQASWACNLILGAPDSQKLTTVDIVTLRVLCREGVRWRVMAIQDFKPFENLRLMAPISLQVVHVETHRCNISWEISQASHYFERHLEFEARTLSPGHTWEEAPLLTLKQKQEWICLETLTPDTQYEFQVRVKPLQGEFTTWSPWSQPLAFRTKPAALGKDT

B1: Molecule R1 (Fc fusion)
chain: ITCPPPMSVEHADIWVKSYSLYSRERYICNSGFKRKAGTSSLTECVLNKATNVAHWTTPSLKCIRDPALVHQRTESGCKECEELEEKNIKEFLQSFVHIVQMFINTSGGGGSNWVNVISDLKKIEDLIQSMHIDATLYTESDVHPSCKVTAMKCFLLELQVISLESGDASIHDTVENLIILANNSLSSNGNVGGGGS[letters of human IgG1 Fc omitted]
notes: also called IL15Rα-M/IL15 DS2
B2: Molecule S1 (Fc fusion)
chain: B1 chain with N184D
notes: also called Molecule R1 w/ N72D
B3: Molecule P1 (Fc fusion)
chain: ITCPPPMSVEHADIWVKSYSLYSRERYICNSGFKRKAGTSSLTECVLNKATNVAHWTTPSLKCIRDPANVTESGCKECEELEEKNIKEFLQSFVHIVQMFINTSGGGGSNWVNVISDLKKIEDLIQSMHIDATLYTESDVHPSCKVTAMKCFLLELQVISLESGDASIHDTVENLIILANNSLSSNGGGGGS[letters of human IgG1 Fc omitted]
notes: also called IL15Rα-S/IL15 DS1
B4: Molecule W1 (Fc fusion)
chain: ITCPPPMSVEHADIWVKSYSLYSRERYICNSGFKRKAGTSSLTECVLNKATNVAHWTTPSLKCIRDPALVHQRTESGCKECEELEEKNIKEFLQSFVHIVQMFINTSGGGGSNWVNVISDLKKIEDLIQSMHIDATLYTESDVHPSCKVTAMKCFLLELQVISLESGDASIHDTVENLIILANNSLSSNGNV[letters of human IgG1 Fc omitted]
notes: also called Molecule R1 w/o 2nd G4S
B5: Molecule X1 (Fc fusion)
chain: ITCPPPMSVEHADIWVKSYSLYSRERYICNSGFKRKAGTSSLTECVLNKATNVAHWTTPSLKCIRDPALVHQRTESGCKECEELEEKNIKEFLQSFVHIVQMFINTSGGGGSNWVNVISDLKKIEDLIQSMHIDATLYTESDVHPSCKVTAMKCFLLELQVISLESGDASIHDTVENLIILANNSLSSNGNV[letters of human IgG1 Fc with changes omitted]
notes: also called Molecule W1 w/ EFL3
B6: Molecule Q1 (Fc fusion)
chain: ITCPPPMSVEHADIWVKSYSLYSRERYICNSGFKRKAGTSSLTECVLNKATNVAHWTTPSLKCIRDPALVHQRPAPPSTESGCKECEELEEKNIKEFLQSFVHIVQMFINTSGGGGSNWVNVISDLKKIEDLIQSMHIDATLYTESDVHPSCKVTAMKCFLLELQVISLESGDASIHDTVENLIILANNSLSSNGNVGGGGS[letters of human IgG1 Fc omitted]
notes: also called IL15Rα-L/IL15 DS2
B7: Molecule N1 (Fc fusion)
chain: ITCPPPMSVEHADIWVKSYSLYSRERYICNSGFKRKAGTSSLTECVLNKATNVAHWTTPSLKCIRDPALVHQRPAPPSNVTESGCKECEELEEKNIKEFLQSFVHIVQMFINTSGGGGSNWVNVISDLKKIEDLIQSMHIDATLYTESDVHPSCKVTAMKCFLLELQVISLESGDASIHDTVENLIILANNSLSSNGGGGGS[letters of human IgG1 Fc omitted]
notes: Single-chain IL-15Rα sushi / IL-15 C-term / IL-15 N-term / IgG1 Fc fusion, expressed in HEK293T cells; also called IL15Rα-L/IL15 DS1
B8: Molecule O1 (Fc fusion)
chain: ITCPPPMSVEHADIWVKSYSLYSRERYICNSGFKRKAGTSSLTECVLNKATNVAHWTTPSLKCIRDPALVHQRPAPPSNVTESGCKECEELEEKNIKEFLQSFVHIVQMFINTSGGGGSNWVNVISDLKKIEDLIQSMHIDATLYTESDVHPSCKVTAMKCFLLELQVISLESGDASIHDTVENLIILANNSLSSNGGGGGS[letters of human IgG1 Fc with changes omitted]
notes: also called Molecule N1 w/ EFL1

Target: T1, IL-2Rβ (CD122)
Assay: SPR (Biacore)
Description: Surface plasmon resonance (SPR; Biacore system) was used to measure the dissociation constant (KD) between the IL-15/IL-15Rα-Fc fusion protein and IL-2Rβ. KD values represent a quantitative measurement of receptor affinity for the target ligand, where a lower KD value represents a higher affinity of the receptor (i.e., IL-2Rβ) for the target ligand (i.e., IL-15/IL-15Rα-Fc).

Kd [nM]	Binder
2.85	B1
0.6	B2
2.84	B3
3.42	B4
3.23	B5
2.65	B6
3.08	B7
3.15	B8
